Data published in the RNAGym collection of RNA variant scans (doi:10.7554/elife.90254).
The source gives no read counts; variants with many changes may rest on few reads.

B1: LINE1-mini (parent)
chain: GGCAGAGCUCAACACAGCGUGGCAAAGUGGCUGUGGCUAGACUGCC

Variants of: B1
Test: self-cleavage, relative activity (ratio to wild type); higher = more cleavage; in vitro, sequencing; the parent is a self-cleaving ribozyme
For G2C A12C G30C, the self-cleavage was 0.1. For G2C A14G U20A, the self-cleavage was 0.05. In the case of G2C C3G C18A G40C, the self-cleavage is reported as 0.07. Work on G2C C3A A14G G17U G21A C23A yielded a self-cleavage of 0.1. For G2C A11C A14C C18U, the self-cleavage was 0.02. G2C A14C C42A gave a self-cleavage of 0.01. In the case of G2C C8A A25C G27U, the self-cleavage is reported as 0.11. Variant G2C C8A G19C G33A A39U G40A has a self-cleavage of 0.02. G2C A14C G30A G36U showed a self-cleavage of 0.33. G2C A14C A24C A41G gave a self-cleavage of 0.01. G2C A16C G21U G36C gave a self-cleavage of 0.03. G2C A12U G36C C42A C46A showed a self-cleavage of 0.07. G2C A14G C23A A24C G27C C37A G40A gave a self-cleavage of 0. Variant G2C C3G C10A A12G G33A has a self-cleavage of 0.03. Work on G2C A12U C23A G29A yielded a self-cleavage of 0.13. For G2C A6G U9C G17C, the self-cleavage was 0.02. Work on G2C A26U G27U C46G yielded a self-cleavage of 0.09. In the case of G2C A6U A11C G17A G29U, the self-cleavage is reported as 0.01. In the case of G2C A11G C18A G19A U32C, the self-cleavage is reported as 0.01. In the case of G2C A12G A16C G19C G33A U34A G35A A39C G44C, the self-cleavage is reported as 0.01. G2C A16U G21C A24G G36A gave a self-cleavage of 0.04. Work on G2C C3G U32C U34C yielded a self-cleavage of 0.04. Work on G2C A11C G36U G44U C46A yielded a self-cleavage of 0.01. In the case of G2C A14C C18G, the self-cleavage is reported as 0.03. Variant G2C A25U G35C U43A C45A C46U has a self-cleavage of 0.08. Work on G2C A12C C18A A25C yielded a self-cleavage of 0.03. G2C A14G U20C C23G U32A C45A showed a self-cleavage of 0.02. Work on G2C A16C C37U yielded a self-cleavage of 0.28. G2C C8A A11C U38G C42G showed a self-cleavage of 0.01. For G2C A11C C23G G30A G36C G40A, the self-cleavage was 0.01. With G2C A26G U32C G35U U38A the self-cleavage was 0.04. G2C A12C G44A gave a self-cleavage of 0.09. For G2C C8A G21C, the self-cleavage was 0.16. G2C C3A U9C showed a self-cleavage of 0.05. With G2C C3A C10A A16G U34G the self-cleavage was 0.02. G2C A24C G30A showed a self-cleavage of 0.05. Work on G2C A11C G17C A26U G29U yielded a self-cleavage of 0.02. G2C C3U A6U C10U A11U G19C C23A G27A showed a self-cleavage of 0.01. G2C A24C G27U A41C gave a self-cleavage of 0.04. Work on G2C A11U A14C G36C C37U yielded a self-cleavage of 0.02. G2C C3A U20G gave a self-cleavage of 0.05. G2C A26G A39U G40A A41C showed a self-cleavage of 0.03. With G2C C3G C10A U38C the self-cleavage was 0.02. For G2C A12U A26G G36U C46A, the self-cleavage was 0.04. In the case of G2C C3A A26G U32G, the self-cleavage is reported as 0.03. With G2C A11U C15A G19U G36C the self-cleavage was 0.01. G2C C8G G19C C31G A39C C46U showed a self-cleavage of 0.08. With G2C A11U A39U C45G the self-cleavage was 0.01. Work on G2C A11G C13A C18A G19C yielded a self-cleavage of 0.03. In the case of G2C C3U G21U G36U, the self-cleavage is reported as 0.09. G2C C3U A11C G35U C42G showed a self-cleavage of 0.02. G2C C3G C23U A41U C46A showed a self-cleavage of 0.02. With G2C A14C G36U A41G the self-cleavage was 0.56. Variant G2C A26U G40A C45U has a self-cleavage of 0.36. Work on G2C A24C G30U G35A G44U yielded a self-cleavage of 0. Variant G2C C8G G19A C23U U28C A39G has a self-cleavage of 0.01. G2C C3G C13U C15A U32C gave a self-cleavage of 0.02. In the case of G2C A24U A25G, the self-cleavage is reported as 0.05. Variant G2C A12C G19U U28A A39G has a self-cleavage of 0. G2C A11U C18U G21C C23G G27C showed a self-cleavage of 0.01. G2C C3G G5A C8U A11G G27U G30A gave a self-cleavage of 0.03. For G2C C3A G7C C15A G35C C45A, the self-cleavage was 0.32. Variant G2C C3U G5A C42U has a self-cleavage of 0.11. Work on G2C A12C G30A U38G yielded a self-cleavage of 0.04. Variant G2C A11C A26G U34A has a self-cleavage of 0. Variant G2C C3U C23A has a self-cleavage of 0.17. G2C A14G C46G showed a self-cleavage of 0.48. For G2C A6U G27C, the self-cleavage was 0.01. In the case of G2C C3A A11C G19A, the self-cleavage is reported as 0.16. Variant G2C C8A C42A U43G has a self-cleavage of 0.15. Work on G2C A6G G17A U20A yielded a self-cleavage of 0.02. Variant G2C A14C G44U has a self-cleavage of 0.01. G2C C8G U20A U32A gave a self-cleavage of 0.01. In the case of G2C A16U A39U, the self-cleavage is reported as 0.02. For G2C A26C U32G C42A, the self-cleavage was 0.05. Work on G2C A6G G22A yielded a self-cleavage of 0.04. G2C A14G C18G G21A C23G gave a self-cleavage of 0.02. In the case of G2C C8G U20G G33U, the self-cleavage is reported as 0.19. Work on G2C C3U G17A C31A U43G C46G yielded a self-cleavage of 0.01. Work on G2C A6G G33C C46A yielded a self-cleavage of 0.03. G2C C3A G27U gave a self-cleavage of 0.01. With G2C A14U C37U the self-cleavage was 0.03. Work on G2C A16U G33U yielded a self-cleavage of 0.03. Work on G2C A12U C42A yielded a self-cleavage of 0.04. Variant G2C C8A C15U G40C has a self-cleavage of 0. For G2C A11U A16G G22U, the self-cleavage was 0.01. Work on G2C C8A C15U G19C U20G C46G yielded a self-cleavage of 0.22. G2C C3G G5A A12G U20C G21U G27C showed a self-cleavage of 0.07. For G2C C8A U34C, the self-cleavage was 0.15. G2C C3U G7A G19C G21U showed a self-cleavage of 0.13. G2C C3U A11G A12U C13U gave a self-cleavage of 0.03. With G2C A41U C42G C46A the self-cleavage was 0.04. G2C A26C C31A G35C C46G showed a self-cleavage of 0.02. For G2C C3A C15G A16U, the self-cleavage was 0.03. In the case of G2C A14G U34C, the self-cleavage is reported as 0.02. In the case of G2C C8A C42A, the self-cleavage is reported as 0.29. With G2C A26C G27A the self-cleavage was 0.08. G2C C3A C18U gave a self-cleavage of 0.09. Work on G2C C3G G5A A11C yielded a self-cleavage of 0.06. With G2C A16G G21C A25G the self-cleavage was 0.09. G2C A12U C23A C42U C45A showed a self-cleavage of 0. With G2C A14G G35U A39C the self-cleavage was 0.07. In the case of G2C C3G G5A G40U, the self-cleavage is reported as 0.11. With G2C A14C G17U G21A A24U A26C G44C the self-cleavage was 0.11. Variant G2C A16G C23U has a self-cleavage of 0.02. Work on G2C C3A A4C yielded a self-cleavage of 0.07. G2C A6G G7U A12C gave a self-cleavage of 0.02. Variant G2C C3A C10U A11U has a self-cleavage of 0.01. In the case of G2C A6U G17U C37A, the self-cleavage is reported as 0.2. For G2C A11U A26C A39U U43C, the self-cleavage was 0. G2C A16U A25C G27U C42U gave a self-cleavage of 0.12. Variant G2C A14G G17A has a self-cleavage of 0.09. G2C C8A A39C showed a self-cleavage of 0.04. For G2C C8A C10A, the self-cleavage was 0.01. Variant G2C A14C C37A has a self-cleavage of 0.03. Work on G2C C8A C10U C23A yielded a self-cleavage of 0.06. In the case of G2C C3G A26G G36A A39G C42A, the self-cleavage is reported as 0.05. For G2C A6U A12G G33A, the self-cleavage was 0.22. Variant G2C C3U A4G A39G has a self-cleavage of 0.02. For G2C A14C C37U A41C, the self-cleavage was 0.03. Variant G2C C3U G5A A24C C37G G44U has a self-cleavage of 0.07. Work on G2C A14U G17U yielded a self-cleavage of 0.09. G2C C8G G17A C18A C42G showed a self-cleavage of 0.03. Variant G2C A12U G22U has a self-cleavage of 0.06. For G2C C8G C10A U28A, the self-cleavage was 0.01. For G2C A11G A24G, the self-cleavage was 0.01. For G2C C8G U32A G35C G36C, the self-cleavage was 0.01. G2C A12C A16C U20C U28A showed a self-cleavage of 0.02. Work on G2C C8A A12G C42A yielded a self-cleavage of 0.02. For G2C A16U G36U, the self-cleavage was 0.01. For G2C A6U A12C G35C, the self-cleavage was 0.08. With G2C A14G G19C G44U the self-cleavage was 0.03. Variant G2C A6G U9G C10A G19C G36A C45U has a self-cleavage of 0.01. With G2C C8A C15A G40U the self-cleavage was 0.03. Variant G2C A16U C42A has a self-cleavage of 0.02. G2C A16G A39U gave a self-cleavage of 0.08. In the case of G2C C3A G5U A25C, the self-cleavage is reported as 0.03. G2C A25C C31G C46U showed a self-cleavage of 0.09. Work on G2C C3A C37U yielded a self-cleavage of 0.02. Variant G2C C8A A12U C18G G36A has a self-cleavage of 0.03. G2C A12G A14U C18A C37A showed a self-cleavage of 0.03. In the case of G2C A39C C46A, the self-cleavage is reported as 0. With G2C C8G C18A G36C the self-cleavage was 0.01. G2C A11C G17A showed a self-cleavage of 0.01. In the case of G2C A16U G21U A41G, the self-cleavage is reported as 0.02. Work on G2C A14G C18A C31U A39G yielded a self-cleavage of 0.04. Work on G2C C8A A11U G17C G19C yielded a self-cleavage of 0.01. With G2C C8G A12U G30U G36U the self-cleavage was 0. With G2C C3G A6U U9A A14U U32G A39U the self-cleavage was 1.45. G2C A11G A26G G33C C37U U38C gave a self-cleavage of 0. Variant G2C C3U C18A has a self-cleavage of 0.08. G2C A11C A14G C18G U20A G22C showed a self-cleavage of 0.01. For G2C C3U C15U A25U U38C, the self-cleavage was 0.07. Variant G2C C3G G19C U28A C46U has a self-cleavage of 0.06. With G2C C3A C8G the self-cleavage was 0.02. G2C A11U U32A showed a self-cleavage of 0.02. G2C A14C G17C A25U gave a self-cleavage of 0.02. Work on G2C A12G G33A yielded a self-cleavage of 0.04. For G2C C3G C23U, the self-cleavage was 0.09. In the case of G2C A6U G30U G44U C45U, the self-cleavage is reported as 0.03. Work on G2C C3G G19U G21C G30U U32A yielded a self-cleavage of 0.04. G2C A14C G17U A24U U28A U32C G36U C37A showed a self-cleavage of 0.03. For G2C A16G G19C, the self-cleavage was 0.04. Work on G2C A11U G44A yielded a self-cleavage of 0.04. G2C A12G C15G showed a self-cleavage of 0.2. G2C A16U G40U gave a self-cleavage of 0.03. G2C C3G A39U showed a self-cleavage of 0.06.
